# Results: PubChem BioAssay AID686979 (National Center for Advancing Translational Sciences (NCATS), 2013)
# Several values for one entry are separate records, joined by “and”; a condition that tells them apart may be missing. Equal values may be shown once. The campaign covered roughly 420,000 compounds. About 50,000 (12%) were called active. Inconclusive means that the source gave no clear call. Such entries were picked first, then a sample of the others. The call rests on the fitted dose curve; in most records, active means well fitted inhibition curve with a large enough effect; inconclusive means small, poorly fitted or top-dose-only effect; inactive means flat fitted curve, though single readings scatter. No potency is given beside an inconclusive call; the fits are too rough.
# Assay: qHTS for Inhibitors of human tyrosyl-DNA phosphodiesterase 1 (TDP1): qHTS in cells in presence of CPT; further: nearly all actives have a fitted effect of over 55% in size
# Details: chicken DT40 Tdp1-/-;hTDP1 cells + 20 nM CPT, ATP luminescence, 48 h; activity change, negative = growth inhibition: at 46.2 µM (top of the series) unless noted
# Procedure, shortened: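 Chicken DT40 Tdp1-/- cells stably complemented with human TDP1 were seeded at 400 cells/well in medium containing 20 nM camptothecin, exposed to pin-transferred compounds, and grown at 37 °C for at least 48 hr. Viability was read as ATP luminescence.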
# On the % scale 0 is the no-effect control and ±100 the full control effect; potency means the concentration at half of the fitted maximal effect; tags describe the fitted curve by direction and shape.
Structure (SMILES),Potency,"activity change, negative = growth inhibition"
CC(C)(O)C#Cc1ccc(C(=O)N2CCCC(CCC(=O)NCc3ccccc3F)C2)cc1 (stereo not drawn),"inconclusive [inhibitor, partial curve]",–
Cc1ccc(S(=O)(=O)N2CCC(C(=O)Nc3ccc(C)c(Cl)c3)CC2)cc1,"inconclusive [inhibitor, single point]",–
Cc1ccc(-n2nc3c(=O)n(CC(=O)NCCC4=CCCCC4)nc(C)c3c2C)cc1,"inconclusive [inhibitor, partial curve]",–
COc1ccc(-c2oc3ccc(N4CCOCC4)cc3c2C#CCO)cc1,"inconclusive [inhibitor, single point]",–
COc1ccc(C(=O)COC(=O)C(Cc2c[nH]c3ccccc23)NC(=O)c2ccc(C(C)(C)C)cc2)cc1 (stereo not drawn),active: 18.4 µM,–
CCC1CCc2c(sc(NC(=O)C3c4ccccc4Oc4ccccc43)c2C(N)=O)C1 (stereo not drawn),"inconclusive [inhibitor, single point]",–
C=CCN(c1nc(C)c(Br)c(OC)n1)S(=O)(=O)c1ccc(C)cc1,–,inactive: -13.6%
COC(=O)c1cccc(C(=O)N2CCCC(C(=O)c3cc(F)ccc3F)C2)c1 (stereo not drawn),"inconclusive [inhibitor, single point]",–
Cc1cc2cc(C)c3nnc(SCC(=O)NCc4ccc5c(c4)OCO5)n3c2cc1C,"inconclusive [inhibitor, single point]",–
CS(=O)(=O)c1ccc2nc(NC(=O)Nc3ccc(Cl)c(Cl)c3)sc2c1,"inconclusive [inhibitor, full curve]",–
CCOC(=O)c1c(C)[nH]c(C)c1S(=O)(=O)N1CCN(c2cccc(C(F)(F)F)c2)CC1,"inconclusive [inhibitor, partial curve]",–
Cc1ccc(-n2cccc2/C=C2\C(=N)N3N=C(c4ccco4)SC3=NC2=O)cc1,–,inconclusive: -31.9% [inhibitor]
COc1ccc(CCNC(=O)C(=O)NCC(c2cccs2)S(=O)(=O)c2ccc(C)cc2)cc1 (stereo not drawn),"inconclusive [inhibitor, single point]",–
N#CC(C#N)C(c1ccsc1)c1c(-c2ccccc2)[nH][nH]c1=O (stereo not drawn),"inconclusive [inhibitor, single point]",–
CCC1C/C(=C\c2cccnc2)C(=O)/C(=C/c2cccnc2)C1 (stereo not drawn),active: 3.26 µM,–
COc1ccc(-c2nc(CS(=O)CC(=O)NCc3ccc(Cl)cc3)c(C)o2)cc1 (stereo not drawn),"inconclusive [inhibitor, single point]",–
NC(=O)c1ccccc1NC(=O)CSc1cn[nH]n1,–,inactive: -18.4%
O=C(Nc1ccncc1)c1cn(-c2ccccc2)nc1-c1cccs1,"inconclusive [inhibitor, partial curve, poor fit]",–
COc1cc(C(=O)c2nccc3cc(OC)c(OC)cc23)c([N+](=O)[O-])cc1OC,–,inactive: -7.04%
CCN(CC(=O)Nc1ccccc1OC)CC(=O)Nc1sccc1C#N,"inconclusive [inhibitor, single point]",–
O=C(Nc1ccccc1)c1ccccc1OCc1ccccc1,"inconclusive [inhibitor, single point]",–
COc1cccc(N2CCN(C(=O)CCS(=O)(=O)c3ccc4c(c3)oc(=O)n4C)CC2)c1,"inconclusive [inhibitor, single point]",–
O=C(O)c1ccc(-c2nnc(-c3ccccc3)o2)cc1,"inconclusive [inhibitor, single point]",–

Structure (SMILES),Potency,"activity change, negative = growth inhibition"
CCCCCCCCNS(=O)(=O)CCNCc1ccc(OC)cc1,"inconclusive [inhibitor, single point]",–
COc1ccc(/C=N\NC(=O)c2c(C)nc3ccc(Br)cn23)cc1,active: 0.58 µM,–
COc1ccc(/C=N/NS(=O)(=O)c2ccc(NC(C)=O)cc2)cc1,–,inactive: -22.2%
CC1OC(C2CCCCC2)Cc2[nH]c(=S)[nH]c(=O)c21 (stereo not drawn),"inconclusive [inhibitor, single point]",–
CN(CC(=O)NCCc1ccc(S(N)(=O)=O)cc1)CC(=O)Nc1ccc(Cl)c(C(F)(F)F)c1,active: 13 µM,–
O=C([C@H](Cc1ccccc1)NS(=O)(=O)c1ccc(Cl)cc1)N1CC[C@@]2(O)CCCC[C@H]2C1,"inconclusive [inhibitor, single point]",–
COc1ccc(NC(=O)CSc2nc(C)c3c(c2C#N)CCCC3)cc1,"inconclusive [inhibitor, partial curve]",–
Cc1cc[n+](CC[n+]2ccc(C)cc2)cc1,–,inactive: -2.06%
O=C(c1ccc(Cl)cc1)c1cnc(Nc2ccccc2Cl)s1,"inconclusive [inhibitor, single point]",–
CC1(C)NC(=O)N(c2ccc([N+](=O)[O-])c(C(F)(F)F)c2)C1=O,active: 21.1 µM and active: 10.3 µM and active: 18.8 µM,–
CCN1CCN(CCNC(=O)c2ccc3c(c2)N(Cc2ccc(F)cc2)C(=O)/C(=C/c2ccccc2)S3)CC1,active: 11.6 µM,–
CCN1/C(=C/C=C/C=C/C=C/c2sc3ccccc3[n+]2CC)Sc2ccccc21,active: 0.517 µM,–
Cc1cccn2c(CNCC3(c4ccccc4)CCCC3)c(C(=O)N3CCOCC3)nc12,active: 13 µM,–
Cc1ccc(/C=C(\C#N)C(=O)NCC2CCCO2)o1 (stereo not drawn),–,inactive: 0.699%
Cc1cccc(OCc2ccccc2)n1,–,inactive: -1.51%
O=C1[C@H]2[C@@H](c3ccc(F)cc3)N3C(=O)N(c4cccc(Cl)c4)C(=O)[C@@]3(Cc3ccc(Cl)cc3)[C@H]2C(=O)N1C1CCCCC1,active: 16.4 µM,–
COc1cc(OC)cc(-c2cc3nc(C)c(CCC(=O)NCc4ccc(Cl)cc4)c(C)n3n2)c1,"inconclusive [inhibitor, single point]",–
Cc1ccc(/C=N/NC(=O)c2ccccc2OCc2ccc(F)cc2)o1,active: 5.8 µM,–
CC1(C(=O)NS(=O)(=O)c2cccc(OC(F)F)c2)CCN1C(=O)C1CC1 (stereo not drawn),–,inactive: 2.49%
CN1OC[C@@H]2CN(S(=O)(=O)c3cc(Cl)cc(Cl)c3)[C@H](c3ccc(-c4ccc(C#N)cc4)cc3)C[C@@H]21,"inconclusive [inhibitor, single point]",–
CC(=O)c1ccc(OCCCC(=O)Nc2ccc(S(=O)(=O)N3CCOCC3)cc2)cc1,"inconclusive [inhibitor, single point]",–
CCn1cc(C(=O)NCCCN2CCCC(C)C2)c(=O)c2cc(S(=O)(=O)N3CCc4ccccc4C3)ccc21 (stereo not drawn),active: 23.1 µM,–
Cc1cccc(C)c1NC(=O)C/C(N)=N/O,–,inactive: -0.815%

Structure (SMILES),Potency,"activity change, negative = growth inhibition"
COc1ccc(C(=O)/C=C/c2ccc3c(c2)OCCO3)cc1,"inconclusive [inhibitor, single point]",–
Cc1nn(CC(=O)N(C)C2CCS(=O)(=O)C2)c(C)c1S(=O)(=O)N(C)C (stereo not drawn),–,inactive: -4.68%
CC(C)c1ccc(C(=O)OCC(=O)c2c(N)n(C)c(=O)n(C)c2=O)cc1,"inconclusive [inhibitor, single point]",–
CCOC(=O)c1ccc(CNC(=O)c2n[nH]c(=O)c3ccccc23)o1,"inconclusive [inhibitor, single point]",–
COc1ccc(/C(C)=N/N=C2/NC(=O)CC(C(=O)O)S2)cc1 (stereo not drawn),"inconclusive [inhibitor, single point]",–
Cc1cccc(N2CCN(C(=O)Cn3ncc4c5ccccc5n(C)c4c3=O)CC2)c1C,–,inactive: -13.9%
COc1ccc(C(=O)Nc2ccc(-n3nncc3-c3ccccc3)cc2)cc1OC,active: 3.66 µM,–
COc1ccc(S(=O)(=O)N2N=C(C)Oc3ccccc3C2=O)cc1,active: 2.91 µM,–
O=c1oc2cc(Br)ccc2n1CSC1=NCCS1,active: 20.6 µM,–
CCOC(=O)c1c(NC(=O)CN2CCCc3ccccc32)sc(C(C)=O)c1C,"inconclusive [inhibitor, partial curve]",–
CN(CC(=O)Nc1cccc(F)c1)CC(=O)Nc1cccc2ccccc12,"inconclusive [inhibitor, single point]",–
Cc1ccc(C)n1-c1nnc(N2CCCC(C(=O)NCc3cccc(F)c3)C2)s1 (stereo not drawn),"inconclusive [inhibitor, partial curve, poor fit]",–
Cc1ccc2[nH]c3c(=O)n(CC(=O)N4CCCCC4)ncc3c2c1,–,inactive: -16.1%
COc1ccc(Cc2c(-c3ccc(F)cc3)nc3ccc(Cl)cn23)c(C)c1,"inconclusive [inhibitor, single point]",–
COc1cc(S(=O)(=O)N2CCC(O)(c3cccc(C(F)(F)F)c3)CC2)ccc1-n1cnnn1,"inconclusive [inhibitor, single point]",–
CCOC(=O)c1ccc(N/C=C/C(=O)C(C)(C)C)cc1,–,inactive: -12.5%
O=C(C1CC1)N1CCC(c2nc(-c3ccc(S(=O)(=O)N4CCCC4)cc3)no2)CC1,"inconclusive [inhibitor, partial curve, poor fit]",–
Cc1ccc(C)c(S(=O)(=O)N2CCN(C(=O)c3cc(-c4cccs4)nn3-c3ccccc3)CC2)c1,"inconclusive [inhibitor, single point]",–
CCc1ccc(S(=O)(=O)c2cn(Cc3ccccc3)c3cc(F)c(F)cc3c2=O)cc1,"inconclusive [inhibitor, partial curve, poor fit]",–
CCc1ccccc1Nc1nc2ccccc2c2nncn12,"inconclusive [inhibitor, single point]",–
CCCc1nc2ccc(C)cn2c1Cc1ccsc1,active: 13 µM,–
O=C(Cc1cccc(C(F)(F)F)c1)Nc1ccccc1,"inconclusive [inhibitor, single point]",–
